# “And” between values parts separate entries of the source, which are not always exact repeats. Equal entries are not always repeated. Hit rate of the full screen: of about 420,000 compounds, about 50,000 (12%) were called active. The shares of active, inactive and inconclusive entries below differ from those in the screen. Calls come from the whole dose curve; as a rule, active = well fitted inhibition curve with a large enough effect; inconclusive = small, poorly fitted or top-dose-only effect; inactive = flat fitted curve, though single readings scatter. Potencies beside an inconclusive call are fits to weak or partial responses and may not hold up.
# Test: qHTS for Inhibitors of human tyrosyl-DNA phosphodiesterase 1 (TDP1): qHTS in cells in presence of CPT; note: nearly all actives have a fitted effect of over 55% in size
# Details: chicken DT40 Tdp1-/-;hTDP1 cells + 20 nM CPT, ATP luminescence, 48 h; activity change, negative = growth inhibition: at 46.2 µM (top of the series) unless noted
# Method in brief: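 Chicken DT40 Tdp1-/- cells complemented with human TDP1, 400 cells/well, exposed to compounds plus 20 nM camptothecin for at least 48 h at 37 C; viability read as ATP content by CellTiter-Glo luminescence.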
# % is set by controls: 0 for no effect and ±100 for the full control effect; potency is the fitted concentration of half-maximal effect; tags give direction and shape of the fitted curve.
Structure (SMILES),Potency,"activity change, negative = growth inhibition"
CC(=O)Nc1ccc(S(=O)(=O)Nc2nnc(C(C)(C)C)s2)cc1,"inconclusive: 23.1 µM [inhibitor, single point]",
COc1cccc(CNCCSc2nnnn2-c2ccccc2)c1OC,"inconclusive: 29.1 µM [inhibitor, single point]",
Cc1ccc(-n2ncc3c(NCc4ccco4)ncnc32)cc1C,,inactive: 10%
CN(Cc1cccs1)C(=O)C1CCN(S(=O)(=O)c2ccccc2)CC1,"inconclusive: 9.2 µM [inhibitor, partial curve]",
Cc1c(Cl)cccc1NC(=O)CCCn1nc(C)c2sc3ccccc3c2c1=O,"inconclusive: 18.4 µM [inhibitor, partial curve]",
COc1ccccc1NS(=O)(=O)c1cc(-c2cc(C)no2)ccc1OC,,inactive: -13.2%
COCCCNC(=O)NC(CCC(C)C)c1c(-n2cccc2)sc2c1CCN(C)C2 (stereo not given),"inconclusive: 23.1 µM [inhibitor, single point]",
COc1ccc(C)cc1NC(=O)CN1C(=O)COc2ccc(S(=O)(=O)N3CCCCC3)cc21,"inconclusive: 29.1 µM [inhibitor, single point]",
NS(=O)(=O)c1cccc(NC(=O)COC(=O)c2cc([N+](=O)[O-])ccc2N2CCCC2)c1,,inactive: -4.21%
Cc1nc(NS(=O)(=O)c2ccc(N)cc2)nc(C)c1Br,,inactive: -1.38%
Cc1nnc(C)n1-c1ccc(C(=O)Nc2cccc(Br)c2)cc1,"inconclusive: 16.4 µM [inhibitor, single point]",
COc1cc(/C=C2/C(=O)NN(c3cccc(F)c3)C2=O)ccc1OC(=O)c1ccco1,"inconclusive: 29.1 µM [inhibitor, single point]",
Cc1ccc(CSC2=Nc3sccc3C3=NC(=O)CN23)cc1,,inconclusive: -30.3% [inhibitor]
COc1cc(-c2nc(-c3ccc4c(c3)-c3ccccc3S4(=O)=O)c(-c3ccccc3)[nH]2)cc(OC)c1O,active: 6.51 µM,
CCOC(=O)[C@@H]1[C@H]2COc3ccc(Br)cc3[C@@H]2N2C(=O)N(c3ccc(Cl)cc3)C(=O)[C@@]12C,active: 20.6 µM,
CC(C)(C)n1cnc2cc(NCc3cccs3)ccc21,"inconclusive: 5.17 µM [inhibitor, partial curve]",
COc1cccc(C(=O)COC(=O)CCCC(=O)NC2CCCCC2)c1,,inactive: 0.12%
COc1ccc(OCC(=O)N2CCN(C(=O)c3ccc([N+](=O)[O-])cc3)CC2)cc1,,inactive: 1.39%
CSCCC(C(=O)NC1CCCC1)n1c(C2CC2)nc2ccccc21 (stereo not given),,inactive: -2%
COc1cccc(-c2ccc(NC(=O)C3CCCN(Cc4cnn(C(C)C)c4)C3)cc2)c1 (stereo not given),active: 23.1 µM,
COc1ccc(N(C(=O)CCl)C(C(=O)NCCc2ccccc2)c2cccs2)cc1Cl (stereo not given),active: 2.59 µM,
CCOC(=O)C1=C(COC(=O)COc2ccccc2C#N)NC(=O)NC1C (stereo not given),,inactive: 1.56%
COc1ccc(NC(=O)N(C)[C@H]2C[C@H]3c4[nH]c5ccc(-c6cccc(C)c6)cc5c4CCN3C[C@H]2[C@H](C)O)cc1,"inconclusive: 16.4 µM [inhibitor, single point]",
Fc1ccc(-c2cn(-c3ccccc3)c3[n+]2CCS3)cc1,"inconclusive: 23.1 µM [inhibitor, single point]",

Structure (SMILES),Potency,"activity change, negative = growth inhibition"
CS(=O)(=O)N(Cc1ccco1)CC(O)Cn1cc(C=O)c2ccccc21 (stereo not given),,inconclusive: -30.5% [inhibitor]
CC(C)Sc1nc2sc3c(c2c(=O)n1Cc1ccccc1)CCCC3,"inconclusive: 29.1 µM [inhibitor, single point]",
O=C(Nc1nc(-c2ccccc2)cs1)c1ccc2c(=O)n3c(nc2c1)CCCCC3,active: 16.4 µM,
CCC(CC)COC(=O)C1=C(C)NC(=O)NC1c1cccc([N+](=O)[O-])c1 (stereo not given),"inconclusive: 23.1 µM [inhibitor, single point]",
O=C1OCCN1C(=O)[C@H]1[C@H](c2ccc([N+](=O)[O-])cc2)C(c2ccc(F)cc2)=NN1c1ccc(Br)cc1,"inconclusive: 29.1 µM [inhibitor, single point]",
CCCCCC(=O)N1CCN(S(=O)(=O)c2ccc3c(c2)OCCCO3)CC1,"inconclusive: 29.1 µM [inhibitor, single point]",
O=C(c1cc(Cl)cc(Cl)c1)N1CCN(c2cc(C(F)(F)F)nc3ccccc23)CC1,active: 20.6 µM,
CNC(=O)c1cn2c3c(ccc(Cl)c3c1=O)OC(C)C2 (stereo not given),,inactive: 15.6%
CCc1cc(C(=O)c2ccccc2)c(N)s1,active: 25.9 µM,
O=C(NCCN1CCN(c2ccccc2)CC1)Nc1cccc(Br)c1,"inconclusive: 29.1 µM [inhibitor, single point] and inconclusive: 18.4 µM [inhibitor, partial curve]",
CC1(C)CC(=O)c2cc(-c3nc(-c4ccccc4)cs3)c(=O)[nH]c2C1,active: 9.2 µM,
CCCOc1ccc2c(C)c(CC(=O)OC)c(=O)oc2c1,"inconclusive: 23.1 µM [inhibitor, single point]",
CN(C)S(=O)(=O)c1cccc(-c2csc(=Nc3ccccc3)n2CCCN2CCOCC2)c1,"inconclusive: 18.4 µM [inhibitor, single point]",
Cc1ccccc1OCCCC(=O)Nc1ccc(S(=O)(=O)Nc2onc(C)c2C)cc1,,inactive: -109%
Cc1ccc(CSc2nc3ccccc3c(=O)n2CCCC(=O)NCc2ccco2)cc1,"inconclusive: 14.6 µM [inhibitor, partial curve, poor fit]",
CC(C)NC(=O)C1(C)CCCCCN1C(=O)c1ccc(-c2ccccc2)cc1 (stereo not given),active: 18.4 µM,
Fc1ccccc1N1CCN(Cc2nc(-c3ccc(Cl)cc3Cl)no2)CC1,,inactive: -1.48%
Cc1ccc(-n2ncc3c(SCc4ccccn4)ncnc32)c(C)c1,"inconclusive: 29.1 µM [inhibitor, single point]",
Fc1cccc(/C=C2\CCCC3=C2NC(=S)NC3c2cccc(F)c2)c1 (stereo not given),"inconclusive: 29.1 µM [inhibitor, single point]",
COc1ccc(NC(=O)C[C@H]2C(=O)N(c3ccc(Br)cc3)C[C@@H]2CSC)cc1,"inconclusive: 18.4 µM [inhibitor, single point]",
Cc1ccc(N2CCN(S(=O)(=O)c3ccc4oc(=O)ccc4c3)CC2)c(C)c1,active: 16.4 µM,
CC1CCN(CC(=O)Nc2ccc(S(=O)(=O)N3CCCC(C)C3)cc2)CC1 (stereo not given),"inconclusive: 10.3 µM [inhibitor, partial curve]",
CCOc1ccc(NC(=O)CSc2nc3ccsc3c(=O)n2C(C)CC)cc1 (stereo not given),"inconclusive: 10.3 µM [inhibitor, partial curve]",
CN(C)c1ccc(C(=O)Nc2ccc(CN3CCS(=O)(=O)CC3)cc2)cc1,,inactive: -4.16%

Structure (SMILES),Potency,"activity change, negative = growth inhibition"
O=C(OCc1ccccc1)N1CCOCCN(C(=O)OCc2ccccc2)CCOCC1,active: 25.9 µM,
CN(Cc1ccco1)c1cc(-c2ccc3c(c2)OCO3)ncn1,,inactive: -21.4%
Cc1cc(OCC(=O)Nc2ccc(S(=O)(=O)N3CCN(C)CC3)cc2)ccc1Cl,"inconclusive: 16.4 µM [inhibitor, single point]",
COc1ccc(N2CCN(CCNC(=O)Nc3ccc(C)cc3Cl)CC2)cc1,"inconclusive: 5.17 µM [inhibitor, full curve, poor fit]",
Cc1ccc(NS(=O)(=O)c2ccc(-c3cnc(C4CC4)o3)cc2)c(C)c1,active: 1.46 µM,
COc1ccc(Nc2nc(-c3cccc(Cl)c3)c3c(n2)-c2ccccc2OC3)cc1,"inconclusive: 29.1 µM [inhibitor, single point]",
O=C1C(O)=C(O)C(=O)c2ccccc21,"inconclusive: 29.1 µM [inhibitor, single point]",
CCCn1c(=S)[nH]c2cc(C(=O)N3CCN(c4ccc(F)cc4)CC3)ccc2c1=O,"inconclusive: 29.1 µM [inhibitor, single point]",
COc1ccc(S(=O)(=O)Nc2ccccc2OC)cc1NC(=O)CC1CC2CCC1C2 (stereo not given),"inconclusive: 23.1 µM [inhibitor, single point]",
Cc1ccccc1CN(c1ccc(C(=O)NCc2cccnc2)cc1)S(C)(=O)=O,,inactive: -3.24%
O=C(CCNS(=O)(=O)c1ccc(Cl)cc1)N1CCCCCC1,,inactive: -8.78%
CCOc1ccc(CCNC(=O)CCc2c(C)nc3c(c(C)nn3-c3ccc(C)c(C)c3)c2C)cc1,,inactive: 1.18%
COc1ccc(-c2cc(C(F)(F)F)c3c(N)c(C(=O)NCCSC)sc3n2)cc1,"inconclusive: 13 µM [inhibitor, single point]",
CC(C)CN(CC(C)C)C(=O)COc1ccccc1C(N)=O,"inconclusive: 29.1 µM [inhibitor, single point]",
CCOC(=O)/C(N=Nc1ccc(C(=O)O)cc1[N+](=O)[O-])=C(\C)O,,inactive: -16.3%
O=C(COc1cccc(NC(=O)c2cccs2)c1)c1ccc(F)cc1,"inconclusive: 29.1 µM [inhibitor, single point]",
O=C1OC(c2ccccc2)(c2cc(Br)ccc2O)c2ccccc21 (stereo not given),active: 18.4 µM,
C/C(Cn1nnc([N+](=O)[O-])n1)=N\NC(=O)c1ccc(O)cc1O,"inconclusive: 23.1 µM [inhibitor, single point]",
CCOc1cc(CNC2CCCC2)c(Cl)cc1OCC(=O)Nc1ccccc1,active: 18.4 µM,
COc1ccc(NC(=S)N2CCN(S(=O)(=O)c3ccc(F)cc3)CC2)cc1OC,,inactive: -4.38%
COc1ccc(C=O)cc1CN1CCCN(Cc2ccc(Cl)cc2)S1(=O)=O,"inconclusive: 25.9 µM [inhibitor, single point]",
CC(=O)c1cccc(OCC(O)CNCCc2ccc(Cl)cc2)c1 (stereo not given),"inconclusive: 23.1 µM [inhibitor, single point]",

# Reference: PubChem BioAssay AID686979 (National Center for Advancing Translational Sciences (NCATS), 2013)
